The record followed here is the supplement of paper PMC10670038.

Counter-ions that a name gives are not always drawn. ± gives the standard deviation of the averaged measurements. Over roughly 2,000 compounds, “relative cell viability vs DMSO, compound alone” has its median near 1.1; the lowest 2% begin near 0.29. Some of the results follow.

The assay has as its system TE10. The experiment in a line: relative cell viability vs DMSO, compound alone (fraction); TE10 is an esophageal squamous carcinoma line; higher = less cytotoxic. Particulars: 2 µM; 48 h. The procedure: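 TE10 ESCC cells (1,000/well, 384-well plates) were treated with Selleck bioactive library compounds at 2 uM alone for 48 h. Viability was read by CellTiter-Glo and expressed relative to DMSO wells. Two technical replicates (A, B).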
With `c1ccc(CC2=NCCN2)cc1` [Tolazoline HCl], the relative cell viability came to 1.16 ± 0.0092.

The compound `CC(C)(Oc1ccc(CCNC(=O)c2ccc(Cl)cc2)cc1)C(=O)O` [Bezafibrate] displayed a relative cell viability of 1.19 ± 0.027.

Take `O=C(O)CCc1nc(-c2ccccc2)c(-c2ccccc2)o1` [Oxaprozin]: the relative cell viability is 1.087 ± 0.0057.

Take `O=C(c1cc(Cc2n[nH]c(=O)c3ccccc23)ccc1F)N1CCN(C(=O)C2CC2)CC1`: the relative cell viability was found to be 1.19 ± 0.053.

In the case of `O=C(O)CCCc1c[nH]c2ccccc12` [3-Indolebutyric acid (IBA)], the relative cell viability is 1.1 ± 0.024.

`O=C1c2ccccc2C(=O)C1c1ccccc1` [Phenindione] gave a relative cell viability of 0.978 ± 0.056.

`CC[C@H]1OC(=O)[C@H](C)[C@@H](O[C@H]2C[C@@](C)(OC)[C@@H](O)[C@H](C)O2)[C@H](C)[C@@H](O[C@@H]2O[C@H](C)C[C@H](N(C)C)[C@H]2O)[C@](C)(O)C[C@@H](C)C(=O)[C@H](C)[C@@H](O)[C@]1(C)O` [Erythromycin] gave a relative cell viability of 1.08 ± 0.053.

In the case of `COc1cc(F)c(C(C)C)cc1-c1ccc(C(F)(F)F)cc1CN1C(=O)O[C@H](c2cc(C(F)(F)F)cc(C(F)(F)F)c2)[C@@H]1C` [Anacetrapib (MK-0859)], the relative cell viability stood at 1.04 ± 0.095.

Compound `CO[C@H]1/C=C/O[C@@]2(C)Oc3c(C)c(O)c4c(O)c(c(/C=N/N5CCN(C)CC5)c(O)c4c3C2=O)NC(=O)/C(C)=C\C=C\[C@H](C)[C@H](O)[C@@H](C)[C@@H](O)[C@@H](C)[C@H](OC(C)=O)[C@@H]1C` [Rifampin] returned a relative cell viability of 1.049 ± 0.003.

`Cc1c(Cl)cccc1Nc1ccccc1C(=O)O` [Tolfenamic Acid] displayed a relative cell viability of 1.08 ± 0.018.

As for `CCCSc1ccc2[nH]c(NC(=O)OC)nc2c1` [Albendazole], the relative cell viability turned out to be 0.769 ± 0.027.

`CC(C)Nc1cc(-c2c[nH]c(C(=O)N[C@H](CO)c3cccc(Cl)c3)c2)c(Cl)cn1` showed a relative cell viability of 0.84 ± 0.00098.

Turning to `Cc1ccc(N(CC2=NCCN2)c2cccc(O)c2)cc1` [Phentolamine Mesylate], the relative cell viability was determined as 0.894 ± 0.012.

Consider `Cc1ccc(S(=O)(=O)C=CC#N)cc1`, for which the relative cell viability stood at 0.063 ± 0.0047.

Compound `CNC[C@@H](O)c1ccc(O)c(O)c1` [L-Adrenaline] gave a relative cell viability of 1.06 ± 0.028.

With `CCc1ccc(CCOc2ccc(CC3SC(=O)NC3=O)cc2)nc1` (stereo unspecified) [Pioglitazone HCl], the relative cell viability is 1.01 ± 0.062.

Compound `CCc1ccc(CCOc2ccc(CC3SC(=O)NC3=O)cc2)nc1` (stereo unspecified) [Pioglitazone] returned a relative cell viability of 1.15 ± 0.092.

`O=C(O)/C=C/c1ccc(Cn2ccnc2)cc1` [Ozagrel HCl] gave a relative cell viability of 0.982 ± 0.026.

Compound `O=C(O)/C=C/c1ccc(Cn2ccnc2)cc1` [Ozagrel] displayed a relative cell viability of 1.14 ± 0.04.

As to `COc1cc2nccc(Oc3ccc(NC(=O)C4(C(=O)Nc5ccc(F)cc5)CC4)cc3)c2cc1OC`, the relative cell viability worked out at 0.829 ± 0.17.

The compound `COc1cc2nccc(Oc3ccc(NC(=O)C4(C(=O)Nc5ccc(F)cc5)CC4)cc3)c2cc1OC` [Cabozantinib malate (XL184)] had a relative cell viability of 0.903 ± 0.039.

`CNC(=O)c1cc(COc2nnc(Nc3ccc(Cl)cc3)c3ccoc23)ccn1` [Telatinib] had a relative cell viability of 0.953 ± 0.0032.

Compound `CCCc1nc(C)c2c(=O)nc(-c3cc(S(=O)(=O)N4CCN(CC)CC4)ccc3OCC)[nH]n12` [Vardenafil HCl Trihydrate] gave a relative cell viability of 1.11 ± 0.025.

In the case of `O=c1c(-c2ccc(O)cc2)coc2c([C@@H]3O[C@H](CO)[C@@H](O)[C@H](O)[C@H]3O)c(O)ccc12` [Puerarin], the relative cell viability worked out at 1.12 ± 0.046.

The compound `Cc1cc(C)cc(C(=O)NOCCCCCC(=O)NO)c1` had a relative cell viability of 0.5308 ± 0.00056.

With `Cc1cc([C@@H](C)Nc2ccccc2C(=O)O)c2nc(N3CCOCC3)cc(=O)n2c1`, the relative cell viability turned out to be 0.854 ± 0.072.

Compound `CCOc1nc2cccc(C(=O)O)c2n1Cc1ccc(-c2ccccc2-c2noc(=O)[nH]2)cc1` [Azilsartan] gave a relative cell viability of 0.961 ± 0.29.

The compound `COCCOC(=O)C1=C(C)NC(C)=C(C(=O)OC/C=C/c2ccccc2)C1c1cccc([N+](=O)[O-])c1` (stereo unspecified) [Cilnidipine] returned a relative cell viability of 1.15 ± 0.055.

`CN(C)CCOc1ccc(/C(=C(/CCCl)c2ccccc2)c2ccccc2)cc1` [Toremifene Citrate] had a relative cell viability of 1.108 ± 0.0042.

The compound `CC(C)(Cc1ccc2ccccc2c1)NC[C@@H](O)COc1cccc(Cl)c1C#N` returned a relative cell viability of 0.908 ± 0.048.

The compound `O=C1Nc2ccc(I)cc2C1=Cc1cc(Br)c(O)c(Br)c1` had a relative cell viability of 1.07 ± 0.058.

`CCN1CCN(C(=O)N[C@@H](C(=O)N[C@@H]2C(=O)N3C(C(=O)O)=C(CSc4nnnn4C)CS[C@H]23)c2ccc(O)cc2)C(=O)C1=O` [Cefoperazone] yielded a relative cell viability of 1.01 ± 0.044.

For the compound `O=C(c1cn(Cc2cncn2Cc2ccc(Br)cc2)cc1-c1cccc2ccccc12)N1CCOCC1`, the relative cell viability is 0.958 ± 0.015.

For `Cc1ccc(Cl)c(Nc2ccccc2C(=O)O)c1Cl` [Meclofenamate Sodium], the relative cell viability was determined as 0.984 ± 0.078.

Compound `O=C(NCCO[N+](=O)[O-])c1cccnc1` [Nicorandil] yielded a relative cell viability of 1.1 ± 0.026.

With `COc1cc(O)c(CC=C(C)C)c(O)c1C(=O)/C=C/c1ccc(O)cc1` [Xanthohumol], the relative cell viability stood at 0.875 ± 0.18.

Regarding `Cc1cc(/N=N/c2ccc(S(=O)(=O)Nc3ccccn3)cc2)c(N)cc1O`, the relative cell viability was found to be 1.07 ± 0.063.

`Oc1ccc(OCc2ccccc2)cc1` [Monobenzone]: the relative cell viability was 1.02 ± 0.0068.

In the case of `CNC(=O)[C@H](Cc1c[nH]c2ccccc12)NC(=O)[C@@H](CC(=O)NO)CC(C)C` [Ilomastat (GM6001, Galardin)], the relative cell viability came out at 1.09 ± 0.033.

In turn, `C[C@H]1C[C@H]2[C@@H]3CCC4=CC(=O)C=C[C@]4(C)[C@@]3(F)[C@@H](O)C[C@]2(C)[C@@]1(O)C(=O)CO` [Betamethasone] gave a relative cell viability of 1.08 ± 0.26.

Consider `Cc1nnc(NS(=O)(=O)c2ccc(N)cc2)s1` [Sulfamethizole], for which the relative cell viability was 1.07 ± 0.033.

With `FC(F)c1nc2ccccc2n1-c1nc(N2CCOCC2)nc(N2CCOCC2)n1`, the relative cell viability was 0.545 ± 0.018.

`COc1ccccc1S(=O)(=O)Nc1ccc2c(c1)CN(C)C(=O)N2` registered a relative cell viability of 0.914 ± 0.017.

In turn, `O=C(O)CCCc1ccccc1` [Sodium Phenylbutyrate] registered a relative cell viability of 1.19 ± 0.039.

`Cc1cnc(NC(=O)C2=C(O)c3ccccc3S(=O)(=O)N2C)s1` [Meloxicam] had a relative cell viability of 1.11 ± 0.045.

For `CC1(C)O[C@@H]2C[C@H]3[C@@H]4CCC5=CC(=O)C=C[C@]5(C)[C@@]4(F)[C@@H](O)C[C@]3(C)[C@]2(C(=O)CO)O1` [Triamcinolone Acetonide], the relative cell viability is 0.947 ± 0.058.

Compound `OC1(c2ccc(Cl)c(C(F)(F)F)c2)CCN(CCCC(c2ccc(F)cc2)c2ccc(F)cc2)CC1` [Penfluridol] came in with a relative cell viability of 0.884 ± 0.056.

Turning to `C[C@@H]1C[C@H]2[C@@H]3CCC4=CC(=O)C=C[C@]4(C)[C@@]3(F)[C@@H](O)C[C@]2(C)[C@@]1(O)C(=O)CO` [Dexamethasone (DHAP)], the relative cell viability amounted to 1.189 ± 0.0092.

`CC(C)Oc1ccc(C(=O)N[C@H](CNC(=O)CN(C)C)Cc2ccc(-c3cn4cccc([C@H](C)O)c4n3)cc2)cc1Cl` had a relative cell viability of 0.949 ± 0.027.

Turning to `CCCCCCCCCCCCCCCC(=O)O[C@@H]1[C@@H](O)[C@@H](O)[C@@H]([C@H](NC(=O)[C@@H]2C[C@@H](CCC)CN2C)[C@H](C)Cl)O[C@@H]1SC` [Clindamycin palmitate HCl], the relative cell viability is 1.13 ± 0.025.

The compound `CNc1cccc(CCOc2ccc3c(c2)CN(CC(F)(F)F)C(=O)[C@H](CC(=O)O)C3)n1` returned a relative cell viability of 1.18 ± 0.089.

In turn, `CC(=O)Nc1ncc([N+](=O)[O-])s1` [Nithiamide] showed a relative cell viability of 1.29 ± 0.044.

`CCN=C1N[C@@H]2[C@@H](O)[C@H](O)[C@@H](CO)O[C@@H]2S1` [Thiamet G] displayed a relative cell viability of 1.04 ± 0.037.

The compound `C=CC(=O)Nc1ccc2ncnc(Nc3cccc(Br)c3)c2c1` came in with a relative cell viability of 1.04 ± 0.074.

In turn, `CCC(=O)c1c(O)cc(O)cc1O` [Flopropione] came in with a relative cell viability of 1.16 ± 0.03.

In turn, `O=C(/C=C\n1cnc(-c2cc(C(F)(F)F)cc(C(F)(F)F)c2)n1)NNc1ccccn1` [Verdinexor (KPT-335)] showed a relative cell viability of 0.3315 ± 0.0025.

In turn, `CC1Cc2ccccc2N1NC(=O)c1ccc(Cl)c(S(N)(=O)=O)c1` (stereo unspecified) [Indapamide] yielded a relative cell viability of 1.09 ± 0.018.

As to `CCOCC(O)COc1ccc(NC(=O)CC[S+](C)C)cc1` (stereo unspecified) [Suplatast Tosylate], the relative cell viability was determined as 0.962 ± 0.027.

Compound `CN1CCN(CCOc2cc(OC3CCOCC3)c3c(Nc4c(Cl)ccc5c4OCO5)ncnc3c2)CC1` [Saracatinib (AZD0530)] returned a relative cell viability of 0.884 ± 0.14.

For `O=C(/C=C/c1ccc(CN(CCO)CCc2c[nH]c3ccccc23)cc1)NO` [LAQ824 (Dacinostat)], the relative cell viability was 0.0682 ± 0.006.

`Cc1nc(-c2cn3c(n2)-c2ccc(-c4cnn(C(C)(C)C(N)=O)c4)cc2OCC3)n(C(C)C)n1` returned a relative cell viability of 0.53 ± 0.025.

Consider `CC(C)(C)c1ccc(-c2nc3ccccc3[nH]2)cc1`, for which the relative cell viability stood at 0.3629 ± 0.0021.

With `Cc1cccc(C#Cc2ccccc2)n1`, the relative cell viability amounted to 0.754 ± 0.064.

Compound `O=c1cc[nH]c(=S)[nH]1` [2-Thiouracil] registered a relative cell viability of 1.14 ± 0.12.

Compound `CC(C)c1cc(-c2ccc(F)c3ccccc23)nc(N)n1` displayed a relative cell viability of 1.13 ± 0.03.

`O=C(NOC[C@H](O)CO)c1ccc(F)c(F)c1Nc1ccc(I)cc1F` showed a relative cell viability of 0.92 ± 0.064.

In turn, `Cc1cc(C)c(/C=C2\C(=O)Nc3ccccc32)[nH]1` [Semaxanib (SU5416)] returned a relative cell viability of 1.11 ± 0.016.

In turn, `CC[C@H]1OC(=O)[C@H](C)[C@@H](O[C@H]2C[C@@](C)(OC)[C@@H](O)[C@H](C)O2)[C@H](C)[C@@H](O[C@@H]2O[C@H](C)C[C@H](N(C)C)[C@H]2O)[C@](C)(O)C[C@@H](C)[C@@H]2N[C@@H](COCCOC)O[C@H]([C@H]2C)[C@]1(C)O` [Dirithromycin] gave a relative cell viability of 0.852 ± 0.15.

`O=C1CC2(CCCC2)CC(=O)N1CCCCN1CCN(c2ncccn2)CC1` [Buspirone HCl] displayed a relative cell viability of 0.992 ± 0.012.

As to `COc1ccc(S(=O)(=O)N(C(C)=O)c2ccccc2/C=C/c2cc[n+]([O-])cc2)cc1`, the relative cell viability stood at 0.918 ± 0.058.

In turn, `Cc1c(F)cc(C(=O)NC2CC2)cc1-c1ccc(C(=O)NCC(C)(C)C)cn1` showed a relative cell viability of 0.959 ± 0.18.

In the case of `O=C1c2ccc(Nc3ccc(F)cc3F)cc2CCc2ccc(OC[C@H](O)CO)cc21` [Skepinone-L], the relative cell viability stood at 1.1 ± 0.066.

In turn, `CCCNCC(O)COc1ccccc1C(=O)CCc1ccccc1` (stereo unspecified) [Propafenone HCl] gave a relative cell viability of 1.03 ± 0.022.

`COc1cc([C@@H]2c3cc4c(cc3[C@@H](O[C@@H]3O[C@@H]5CO[C@@H](C)O[C@H]5[C@H](O)[C@H]3O)[C@H]3COC(=O)[C@H]23)OCO4)cc(OC)c1O` [Etoposide] gave a relative cell viability of 0.755 ± 0.018.

`COc1ccccc1OCC(O)CN1CCN(CC(=O)Nc2c(C)cccc2C)CC1` (stereo unspecified) [Ranolazine 2HCl] had a relative cell viability of 1.24 ± 0.027.

On to `COc1ccccc1OCC(O)CN1CCN(CC(=O)Nc2c(C)cccc2C)CC1` (stereo unspecified) [Ranolazine], for which the relative cell viability was determined as 1.01 ± 0.025.
